# According to the supplement of paper PMC8728848:
# The other results are listed elsewhere or left out.
# How the values were obtained:
# Assay in all cases: glycan array binding signal (z-score within array); higher = stronger binding
# Settings in all cases: glycan notation: IUPAC condensed, linker removed
# [1] = molecular target: Fuc(a1-2)[GalNAc(a1-3)]Gal(b1-3)GlcNAc(b1-3)GalNAc
# Summary of the method: (§1)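 Glycan array data were curated from 3228 arrays in the Consortium for Functional Glycomics database and kept only where the protein sequence was available. Glycan names were converted to IUPAC-condensed notation, and columns mapping to the same glycan were averaged. The binding signal is a within-array Z-score, averaged across arrays of the same protein sequence at different concentrations or buffers and across linkers. Negative Z-scores can be read as non-binding.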
# [2] = molecular target: Fuc(a1-2)[GalNAc(a1-3)]Gal(b1-3)GlcNAc(b1-6)GalNAc
# Summary of the method: as §1
# [3] = molecular target: Fuc(a1-2)[GalNAc(a1-3)]Gal(b1-4)Glc
# Summary of the method: as §1
# [4] = molecular target: Fuc(a1-2)[GalNAc(a1-3)]Gal(b1-4)GlcNAc
# Summary of the method: as §1
# [5] = molecular target: Fuc(a1-2)[GalNAc(a1-3)]Gal(b1-4)GlcNAc(b1-2)Man
# Summary of the method: as §1
# [6] = molecular target: Fuc(a1-2)[GalNAc(a1-3)]Gal(b1-4)GlcNAc(b1-2)Man(a1-3)[Fuc(a1-2)[GalNAc(a1-3)]Gal(b1-4)GlcNAc(b1-2)Man(a1-6)]Man(b1-4)GlcNAc(b1-4)GlcNAc
# Summary of the method: as §1
# [7] = molecular target: Fuc(a1-2)[GalNAc(a1-3)]Gal(b1-4)GlcNAc(b1-2)Man(a1-3)[Fuc(a1-2)[GalNAc(a1-3)]Gal(b1-4)GlcNAc(b1-2)Man(a1-6)]Man(b1-4)GlcNAc(b1-4)[Fuc(a1-6)]GlcNAc
# Summary of the method: as §1
# [8] = molecular target: Fuc(a1-2)[GalNAc(a1-3)]Gal(b1-4)GlcNAc(b1-3)Gal(b1-4)GlcNAc
# Summary of the method: as §1
# [9] = molecular target: Fuc(a1-2)[GalNAc(a1-3)]Gal(b1-4)GlcNAc(b1-3)Gal(b1-4)GlcNAc(b1-3)Gal(b1-4)GlcNAc
# Summary of the method: as §1
# [10] = molecular target: Fuc(a1-2)[GalNAc(a1-3)]Gal(b1-4)GlcNAc(b1-3)GalNAc
# Summary of the method: as §1
# [11] = molecular target: Fuc(a1-2)[GalNAc(a1-3)]Gal(b1-4)GlcNAc(b1-3)[Fuc(a1-2)[GalNAc(a1-3)]Gal(b1-4)GlcNAc(b1-6)]GalNAc
# Summary of the method: as §1
# [12] = molecular target: Fuc(a1-2)[GalNAc(a1-3)]Gal(b1-4)GlcNAc(b1-6)GalNAc
# Summary of the method: as §1
# [13] = molecular target: Fuc(a1-2)[GalNAc(a1-3)]Gal(b1-4)[Fuc(a1-3)]GlcNAc
# Summary of the method: as §1
# [14] = molecular target: Fuc(a1-2)[GalNAc(a1-3)]Gal(b1-4)[Fuc(a1-3)]GlcNAc(b1-3)GalNAc
# Summary of the method: as §1
# [15] = molecular target: Fuc(a1-2)[GalNAc(a1-4)]Gal(b1-4)GlcNAc
# Summary of the method: as §1
# [16] = molecular target: Fuc(a1-2)[GalNAc(b1-3)]Gal
# Summary of the method: as §1
# [17] = molecular target: Fuc(a1-3)GlcNAc
# Summary of the method: as §1
# [18] = molecular target: Fuc(a1-3)[Gal(b1-4)]Glc6S
# Summary of the method: as §1
# [19] = molecular target: Fuc(a1-3)[Gal(b1-4)]GlcNAc
# Summary of the method: as §1
# [20] = molecular target: Fuc(a1-3)[Gal(b1-4)]GlcNAc(b1-2)Man
# Summary of the method: as §1
# [21] = molecular target: Fuc(a1-3)[Gal(b1-4)]GlcNAc(b1-2)Man(a1-3)[Fuc(a1-3)[Gal(b1-4)]GlcNAc(b1-2)Man(a1-6)]Man(b1-4)GlcNAc(b1-4)GlcNAc
# Summary of the method: as §1
# [22] = molecular target: Fuc(a1-3)[Gal(b1-4)]GlcNAc(b1-2)Man(a1-3)[Fuc(a1-3)[Gal(b1-4)]GlcNAc(b1-2)Man(a1-6)]Man(b1-4)GlcNAc(b1-4)[Fuc(a1-6)]GlcNAc
# Summary of the method: as §1
# [23] = molecular target: Fuc(a1-3)[Gal(b1-4)]GlcNAc(b1-3)Gal(b1-3)[Fuc(a1-4)]GlcNAc
# Summary of the method: as §1
# [24] = molecular target: Fuc(a1-3)[Gal(b1-4)]GlcNAc(b1-3)Gal(b1-4)[Fuc(a1-3)]GlcNAc
# Summary of the method: as §1
# [25] = molecular target: Fuc(a1-3)[Gal(b1-4)]GlcNAc(b1-3)Gal(b1-4)[Fuc(a1-3)]GlcNAc(b1-3)Gal(b1-4)[Fuc(a1-3)]GlcNAc
# Summary of the method: as §1
# [26] = molecular target: Fuc(a1-3)[Gal(b1-4)]GlcNAc(b1-3)GalNAc
# Summary of the method: as §1
# [27] = molecular target: Fuc(a1-3)[Gal(b1-4)]GlcNAc(b1-6)GalNAc
# Summary of the method: as §1
# [28] = molecular target: Fuc(a1-3)[Gal(b1-4)]GlcNAc(b1-6)[Gal(b1-3)GlcNAc(b1-3)]Gal(b1-4)Glc
# Summary of the method: as §1
# [29] = molecular target: Fuc(a1-3)[Gal(b1-4)]GlcNAc6S
# Summary of the method: as §1
# [30] = molecular target: Fuc(a1-3)[Gal3S(b1-4)]Glc
# Summary of the method: as §1
# [31] = molecular target: Fuc(a1-3)[Gal3S(b1-4)]GlcNAc
# Summary of the method: as §1
# [32] = molecular target: Fuc(a1-3)[Gal3S(b1-4)]GlcNAc6S
# Summary of the method: as §1
# [33] = molecular target: Fuc(a1-3)[GalNAc(b1-4)]GlcNAc
# Summary of the method: as §1
# [34] = molecular target: Fuc(a1-3)[GalNAc(b1-4)]GlcNAc6S
# Summary of the method: as §1
# [35] = molecular target: Fuc(a1-4)GlcNAc
# Summary of the method: as §1
# [36] = molecular target: Fuc(b1-3)GlcNAc
# Summary of the method: as §1
# [37] = molecular target: Gal(a1-2)Gal
# Summary of the method: as §1
binder,measurement,setting,value
Epa1 (Candida glabrata) (protein) MGSSHHHHHHSSGLVPRGSHMTSSNDISLASKDPTTFPLGCSPDITTPKKGLSMELYSYDFRKKGSYPCWDAAYLDPNYPRTGYKSHRLLAKVDGVTGNINFYYHATKGCTPQLGHLPASYNYPKPLTMTNFTMLLYGYFRPKVTGFHTFTISADDLLFVNFGAGNAFDCCRRDSSADHFGNYQAYAIWGSKTAKDELTVHLDAGVYYPIRLFYNNREYDGALSFTFKTESNENTVSDFSEYFFSLDDTEEGCPGLISYD,glycan array binding signal (z-score),[1],-0.21
same,glycan array binding signal (z-score),[2],-0.323
same,glycan array binding signal (z-score),[3],-0.325
same,glycan array binding signal (z-score),[4],-0.331
same,glycan array binding signal (z-score),[5],-0.295
same,glycan array binding signal (z-score),[6],-0.25
same,glycan array binding signal (z-score),[7],-0.312
same,glycan array binding signal (z-score),[8],-0.336
same,glycan array binding signal (z-score),[9],-0.205
same,glycan array binding signal (z-score),[10],-0.327
same,glycan array binding signal (z-score),[11],-0.23
same,glycan array binding signal (z-score),[12],-0.16
same,glycan array binding signal (z-score),[13],-0.262
same,glycan array binding signal (z-score),[14],-0.296
same,glycan array binding signal (z-score),[15],-0.299
same,glycan array binding signal (z-score),[16],-0.332
same,glycan array binding signal (z-score),[17],-0.259
same,glycan array binding signal (z-score),[18],-0.182
same,glycan array binding signal (z-score),[19],-0.326
same,glycan array binding signal (z-score),[20],-0.289
same,glycan array binding signal (z-score),[21],-0.295
same,glycan array binding signal (z-score),[22],-0.149
same,glycan array binding signal (z-score),[23],-0.283
same,glycan array binding signal (z-score),[24],-0.313
same,glycan array binding signal (z-score),[25],-0.204
same,glycan array binding signal (z-score),[26],-0.284
same,glycan array binding signal (z-score),[27],-0.129
same,glycan array binding signal (z-score),[28],-0.12
same,glycan array binding signal (z-score),[29],0.025
same,glycan array binding signal (z-score),[30],-0.276
same,glycan array binding signal (z-score),[31],-0.259
same,glycan array binding signal (z-score),[32],-0.229
same,glycan array binding signal (z-score),[33],-0.299
same,glycan array binding signal (z-score),[34],-0.352
same,glycan array binding signal (z-score),[35],-0.292
same,glycan array binding signal (z-score),[36],-0.306
same,glycan array binding signal (z-score),[37],-0.323
